Results taken from ChEMBL document CHEMBL4888484, “Replenishing the malaria drug discovery pipeline: Screening and hit evaluation of the MMV Hit Generation Library 1 (HGL1) against asexual blood stage Plasmodium falciparum ,using a nano luciferase reporter read-out” (2022).
In all, about 150,000 compounds went through this assay and about 540 (0.36%) showed an effect of 50% or more. The list shows a part of the results.

System: Plasmodium falciparum
Experiment: Primary screen in NF54 nanoGlo assay, in single point, at 2uM, 72h; a lower Z score goes with more inhibition
Type: functional, Erythrocyte
Conditions: timepoint 72 hour

SMILES	% Inhibition	Z score
OC1Cc2ccccc2C1NCc1cccc2[nH]ccc12 (stereo not drawn)	-1%	0.17
O=C1CC[C@H](C(=O)Nc2cccc(-c3ccc4c(c3)CCO4)c2)N1	-1%	0.11
CC[C@@]1(C)COCCN1Cc1nnn(C)n1	-8%	1.18
Cc1cccnc1CCNC(=O)c1nccn1C	-5%	1.06
COC(=O)C[C@H](NC(=O)c1cc(F)cc(F)c1)C1CC1	30%	-3.35
C=CCCS(=O)(=O)N1CCNC[C@@H]1C	-9%	1.16
COc1cccc(CN[C@@]2(CO)CCOC2)c1F	-15%	1.26
Cc1ccc(C(=O)NCCN2C(=O)CCC2=O)s1	-12%	0.99
O=C1Nc2cc(C(=O)N3CCN(c4ccccn4)CC3)ccc2Nc2ccccc21	-8%	1.48
Cn1c(-c2ccncc2)nc2cc(C(=O)N[C@H](c3ccco3)C(F)(F)F)cc(NC(=O)C3CCC3)c21	-15%	1.72
Cc1[nH]nc(CCC(=O)N2CCN(Cc3ccc4c(c3)OCO4)CC2)c1C	-13%	1.96
CCOc1nccn2c(CNC(=O)c3cccnc3)nnc12	11%	-1.41
O=C1CC[C@@]2(CCCN(c3nc(CO)cs3)C2)CN1CCO	2%	-0.37
Cc1nc(N2CC[C@@H](O)C2)ncc1-c1ccc2c(c1)C(C)(C)CO2	-3%	0.44
CC(C)CCNC(=O)c1[nH]cnc1C(=O)NC(c1ccccc1)c1ccccc1	12%	-1.44
Cc1ccc(-c2cc3c4nn(CC(=O)Nc5ccc(F)cc5F)c(=O)n4ccn3n2)cc1C	5%	-0.66
Cc1cccc(NC(=O)C(Oc2ccccc2)C(=O)Nc2cccc(C)c2)c1	-14%	2.72
Fc1cc(Nc2ncnc3sccc23)ccc1N1CCOCC1	-11%	1.35
COc1cc(NC(=O)N(C)Cc2cccc(F)c2)ncn1	6%	-0.52
O=C(c1ccc(C(F)(F)F)nc1)N1C2CCC1CC(n1cncn1)C2 (stereo not drawn)	-6%	1.14
CCCCn1nc(C)nc1-c1c(C)nn(C)c1C	6%	-0.78

SMILES	% Inhibition	Z score
O=C(Nc1ccc(F)c(NC(=O)C2CCCCC2)c1)c1ccc(F)cc1F	-10%	1.29
CCN(C)C(=O)C1C2C(=O)N(CCc3ccc(C)cc3)C[C@@]23C=C[C@@H]1O3 (stereo partly drawn)	0%	-0.02
Cc1ccc(N2CCC(N[C@H]3CCOC[C@@H]3OCC(=O)O)CC2)cc1	-11%	1.31
COc1cccc(-n2c(=O)n(Cc3ccccc3)c(=O)c3c2ncn3Cc2cccc(Cl)c2)c1	-8%	0.74
CC(=O)N1CCCN(C(=O)c2cc3ccc(C(C)(C)C)cc3[nH]2)CC1	-8%	1.06
Cc1noc(C)c1Cn1ccn2nccc2c1=O	4%	-0.46
COCCN1CCC[C@H](C(=O)N2CCN(c3ccccc3O)CC2)C1	-15%	1.37
CC(C)COc1ccc(CC(=O)NS(=O)(=O)C(C)C)cc1	10%	-1.94
CCCc1cc(C(=O)NC[C@H]2CCCN(C)C2)ccn1	-3%	0.49
Clc1ccc(COc2ccc(Cl)cc2CNCCCn2ccnc2)c(Cl)c1	94%	-11.1
N#Cc1ccc(N[C@@H](CN)C2CCCCC2)cc1	1%	-0.1
CCCn1nc(C)c(C(=O)NCc2ccc(C(C)=O)c(C)n2)c1C	-7%	0.74
Cc1cc(-c2nc(C3(C(=O)OC(C)(C)C)CCC3)no2)n[nH]1	11%	-1.91
COC(=O)c1cc(O)cc(C(=O)N[C@H]2CCC(=O)N(C)C2)c1	-14%	2.04
COc1ccccc1N(CCC(N)=O)C(=O)CN1CCC(NC(=O)c2ccc(F)cc2)CC1	-9%	0.9
O=C(c1ccc(CN2C(=O)CCn3nccc32)cc1)N1CCN(c2cccc(Cl)c2)CC1	13%	-1.57
CC1CCN(S(=O)(=O)c2ccc3c(ccc(=O)n3CC(=O)Nc3cccc(F)c3)c2)CC1	-10%	1.3
Brc1cc2c(cc1Cn1nnc(C3CC3)n1)OCCO2	7%	-0.9
CC(C)NC(=O)c1cc(Cl)c(O)c(Cl)c1	-3%	0.23
C[C@H](NC(=O)CCCc1ccc(O)c(F)c1)c1ccc(N2CCN(C)CC2)cc1	-12%	2.27
O=C1C[C@@H](C(=O)Nc2ccc3c(c2)OCO3)c2c(nc(N3CCC(Cc4ccccc4)CC3)[nH]c2=O)N1	-3%	0.54

SMILES	% Inhibition	Z score
Cc1ccc(CCn2c(C)c(C)c(S(=O)(=O)c3ccc(Cl)cc3)c2N)cc1	-10%	1.27
COc1cc(-c2cc(CN(Cc3ccc(F)cc3)C(=O)c3ccccc3)no2)cc(OC)c1OC	-5%	0.66
CC(=O)Nc1ccc(-c2c3c(C)nn(-c4ccccc4)c3nc3[nH]c(=O)[nH]c(=O)c23)cc1	8%	-1.48
O=C1[C@@H]2CCCN2C(=O)N1CC1(O)CCCCC1	5%	-0.69
Cn1c(C2CCC2)nc2cc(C(=O)NCCc3c[nH]c4ccccc34)cc(NC(=O)[C@@H]3CCCO3)c21	14%	-1.93
C[C@H](NS(C)(=O)=O)C(=O)N1CCC(c2nc3c(s2)CCCC3)CC1	-8%	1.52
Cc1ccc(-c2nc(N(C)C[C@@]3(C)CCN(C)C3)ncc2-c2cncnc2)cc1	-14%	1.89
CN(CCc1ccccc1)c1cnn(CCn2cccn2)c(=O)c1	-15%	2.83
COc1ccc(CCN2C(=O)N[C@@H](CC(=O)NCCn3cnc4ccccc43)C2=O)cc1	1%	-0.07
C[C@@H](CCc1ccccc1)N1CCC(=O)N(Cc2ccncc2)CC1	-2%	0.25
Cn1cccc1CCC(=O)N1C[C@H]2C[C@H](O)[C@@H](O)C[C@H]2C1	-12%	1.99
CCCc1cc(C(=O)N2CC[C@@]3(CCCN(Cc4cccc(OC)c4OC)C3)C2)n(C)n1	7%	-1.07
Cc1nccc(C(=O)N(C)C2CCCCCCC2)n1	-7%	1.31
Cc1cccnc1[C@@H](NC(=O)c1ccn(C)c1C)C1CC1	-4%	0.5
CNS(=O)(=O)c1ccc2c(c1)N(CC(=O)c1cc(C)[nH]c1C)CC2	-5%	0.69
COCCNC(=O)c1ccc(Cl)s1	-15%	2.06
Cc1cc(Cn2ccnc2-c2ccc3c(c2)CC(C)(C)O3)no1	-8%	1.49
O=C1CCCCCN1CCc1nc([C@H]2CCOC2)no1	18%	-2.38
Cc1cc(NS(=O)(=O)CCC2Cc3ccccc3C2)ccc1O	-4%	0.74
COc1ccc(C(=O)N2CCC3(CC2)C[C@@H](CCOc2cccnc2)CCO3)cc1	5%	-0.91
Cc1cc(NC(=O)c2cccnc2)cc(-c2nc3ncccc3o2)c1O	-15%	2.23

SMILES	% Inhibition	Z score
CCn1nc(CN2CCC(NC(=O)c3ccc(F)cn3)CC2)c2c1CCOC2	-3%	0.57
Cc1ccc(S(=O)(=O)N2CCC(c3nc4cc(C(=O)NCc5cccs5)ccc4n3C3CCCCC3)CC2)cc1	17%	-2.83
CC(C)(Oc1ccc2c(c1)CCC2)C(=O)NCCc1nnc(N)s1	-12%	1.15
Cn1cccc1C(=O)NCc1nc(C2CCOCC2)no1	-11%	1.47
OC1(Cc2ccccn2)CCN(Cc2ncnn2CCF)CC1	-2%	0.33
CCn1c(Cn2nc(C)c(C)c(C#N)c2=O)nc2cc(F)ccc21	-23%	2.86
CC(c1nnc(-c2cccs2)o1)N1CCCCC1Cn1cncn1 (stereo not drawn)	-4%	0.4
CC(C)(C)OC(=O)[C@@](C)(O)CNC(=O)c1cc(C#N)c[nH]1	0%	0.09
Fc1ccc(-c2ccc(N3CCCC3)nn2)c2ncccc12	3%	-0.4
Cc1cc(-c2cnn([C@@H]3CCCCO3)c2)ccn1	-3%	0.61
O=C(CS(=O)(=O)Cc1cc(Cl)c2c(c1)OCCCO2)NC1CCCCCC1	35%	-4.72
COc1ccc(-c2noc(-c3ccc(N4CCCC4)nc3)n2)cc1	-4%	0.41
CC(C)[C@@H]1CN(C)CCN1C(=O)c1ncc(C#N)cc1Cl	-2%	0.4
COCC(O)CN(C)C(=O)C(C)c1cccs1 (stereo not drawn)	-13%	2.41
O=C(NC1(C(=O)O)CCc2ccccc21)C1CCCCO1 (stereo not drawn)	3%	-0.26
Nc1ncc2[nH]ccc2c1Br	-3%	0.55
O=C(c1ccc(-c2ccc(Cl)c(Cl)c2)cc1)N1CC[C@H](n2nccn2)C1	10%	-1.39
COCc1cccc(-c2ccc3c(c2)OCCNC3)n1	-5%	0.96
Cc1ccc(C)c(S(=O)(=O)N2CC(N(C(=O)NC(C)C)C3CCOCC3)C2)c1	-1%	0.16
CC1CN(C(=O)C2(C)CCC2)CCN(C(=O)C2(C)CCC2)C1	14%	-1.63
CCN(CCn1cccn1)Cc1c(C)nn(-c2ccccc2)c1C	-2%	0.41
